These are yes or no findings as the source states them, for the method shown. In cells and extracts the contact can be indirect. Some results given as binding are weak or reduced against the parent protein; the word gives no strength. For some assays here: Sequences can lack the tags named with a protein. Values belong to the binder of their own block, whether it stands above or below them.
How the values were obtained:
[1] = target: Treslin/TICRR (TopBP1-interacting replication stimulating protein/TopBP1-interacting checkpoint and replication regulator), endogenous (human (endogenous in 293T and HeLa)) (UniProt Q7Z2Z1); assay: co-IP; IP of endogenous Treslin with rabbit anti-Treslin-970-1400 (control IgG) from native lysates of HeLa Flp-In T-Rex lines expressing MTBP-WT or C-terminal deletions; MTBP by immunoblot
[2] = target: T1, HA-Treslin/TICRR-1-671, in vitro translated (human) (UniProt Q7Z2Z1); assay: co-IP; 35S-labelled MTBP (full length or fragments) and HA-Treslin/TICRR-1-671, each translated in SP6 reticulocyte lysate, mixed; anti-HA IP (control IgG); autoradiography
T1 sequence: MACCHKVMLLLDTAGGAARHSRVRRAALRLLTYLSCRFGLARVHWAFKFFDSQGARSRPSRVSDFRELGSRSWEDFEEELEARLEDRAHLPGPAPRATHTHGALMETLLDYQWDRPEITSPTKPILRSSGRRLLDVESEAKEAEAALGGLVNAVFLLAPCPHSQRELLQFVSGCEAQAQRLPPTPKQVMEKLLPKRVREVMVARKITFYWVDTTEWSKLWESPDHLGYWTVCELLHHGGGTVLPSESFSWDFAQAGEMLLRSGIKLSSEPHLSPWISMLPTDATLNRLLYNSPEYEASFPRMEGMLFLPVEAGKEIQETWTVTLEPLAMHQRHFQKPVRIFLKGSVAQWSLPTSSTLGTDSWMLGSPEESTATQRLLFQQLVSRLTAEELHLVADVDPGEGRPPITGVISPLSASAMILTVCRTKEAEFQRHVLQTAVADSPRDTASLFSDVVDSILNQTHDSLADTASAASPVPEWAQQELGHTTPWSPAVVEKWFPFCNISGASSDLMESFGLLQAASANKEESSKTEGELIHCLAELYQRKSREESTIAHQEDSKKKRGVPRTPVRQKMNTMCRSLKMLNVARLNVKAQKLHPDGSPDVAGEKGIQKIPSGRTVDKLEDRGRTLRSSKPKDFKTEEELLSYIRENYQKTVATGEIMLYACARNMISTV

Amino acid sequences for entries named in this document (tags omitted).
UniProt P49336: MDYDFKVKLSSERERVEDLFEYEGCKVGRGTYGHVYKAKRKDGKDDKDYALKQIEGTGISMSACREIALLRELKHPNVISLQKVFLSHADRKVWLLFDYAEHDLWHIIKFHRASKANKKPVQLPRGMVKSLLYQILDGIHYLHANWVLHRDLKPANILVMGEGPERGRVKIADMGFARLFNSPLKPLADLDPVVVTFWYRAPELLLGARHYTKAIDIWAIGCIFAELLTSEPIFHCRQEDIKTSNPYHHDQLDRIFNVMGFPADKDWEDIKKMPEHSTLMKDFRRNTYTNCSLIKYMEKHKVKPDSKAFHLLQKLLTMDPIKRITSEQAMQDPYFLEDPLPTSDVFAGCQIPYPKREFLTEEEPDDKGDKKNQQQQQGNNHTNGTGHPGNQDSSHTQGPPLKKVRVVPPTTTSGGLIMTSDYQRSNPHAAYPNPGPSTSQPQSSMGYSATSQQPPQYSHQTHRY
UniProt P24863: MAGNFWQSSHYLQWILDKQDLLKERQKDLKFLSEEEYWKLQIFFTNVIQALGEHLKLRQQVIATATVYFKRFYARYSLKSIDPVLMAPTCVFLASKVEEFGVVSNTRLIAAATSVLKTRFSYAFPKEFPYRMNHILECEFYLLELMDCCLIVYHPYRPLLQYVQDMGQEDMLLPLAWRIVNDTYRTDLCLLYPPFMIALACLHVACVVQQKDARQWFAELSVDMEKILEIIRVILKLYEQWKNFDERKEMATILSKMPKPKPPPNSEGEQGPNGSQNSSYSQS

[3] = target: Cdk8 (cyclin-dependent kinase 8), endogenous (human (endogenous in 293T and HeLa)) (UniProt P49336); assay: co-IP; antibodies to endogenous MTBP, cyclin C, Cdk8 or TopBP1 (control IgG) on Protein G Dynabeads in native lysates of HeLa Flip-In T-Rex, HeLa-Kyoto or 293T cells, 150 mM NaCl, 0.1% Triton X-100, 2 h at 4°C; unsynchronised or synchronised cells (M, G1, G1/S, S); TopBP1 IP with or without Cdk2-cyclin A and ATP added to the lysate
[4] = target: cyclin C, endogenous (human (endogenous in HeLa and 293T)) (UniProt P24863); assay: as above

B1: MTBP-ΔC150 (HeLa Flip-In T-Rex stable line) (domain or fragment, UniProt Q96DY7 1-754)
chain: MDRYLLLVIWGEGKFPSAASREAEHGPEVSSGEGTENQPDFTAANVYHLLKRSISASINPEDSTFPACSVGGIPGSKKWFFAVQAIYGFYQFCSSDWQEIHFDTEKDKIEDVLQTNIEECLGAVECFEEEDSNSRESLSLADLYEEAAENLHQLSDKLPAPGRAMVDIILLLSDKDPPKLKDYLPTVGALKHLREWYSAKITIAGNHCEINCQKIAEYLSANVVSLEDLRNVIDSKELWRGKIQIWERKFGFEISFPEFCLKGVTLKNFSTSNLNTDFLAKKIIPSKDKNILPKVFHYYGPALEFVQMIKLSDLPSCYMSDIEFELGLTNSTKQNSVLLLEQISSLCSKVGALFVLPCTISNILIPPPNQLSSRKWKEYIAKKPKTISVPDVEVKGECSSYYLLLQGNGNRRCKATLIHSANQINGSFALNLIHGKMKTKTEEAKLSFPFDLLSLPHFSGEQIVQREKQLANVQVLALEECLKRRKLAKQPETVSVAELKSLLVLTRKHFLDYFDAVIPKMILRKMDKIKTFNILNDFSPVEPNSSSLMETNPLEWPERHVLQNLETFEKTKQKMRTGSLPHSSEQLLGHKEGPRDSITLLDAKELLKYFTSDGLPIGDLQPLPIQKGEKTFVLTPELSPGKLQVLPFEKASVCHYHGIEYCLDDRKALERDGGFSELQSRLIRYETQTTCTRESFPVPTVLSPLPSPVVSSDPGSVPDGEVLQNELRTEVSRLKRRSKDLNCLYPRKRLVKSE
- binding [1]: binds

B4: MTBP (Mdm2 binding protein), endogenous (protein, UniProt Q96DY7 1-904)
chain: MDRYLLLVIWGEGKFPSAASREAEHGPEVSSGEGTENQPDFTAANVYHLLKRSISASINPEDSTFPACSVGGIPGSKKWFFAVQAIYGFYQFCSSDWQEIHFDTEKDKIEDVLQTNIEECLGAVECFEEEDSNSRESLSLADLYEEAAENLHQLSDKLPAPGRAMVDIILLLSDKDPPKLKDYLPTVGALKHLREWYSAKITIAGNHCEINCQKIAEYLSANVVSLEDLRNVIDSKELWRGKIQIWERKFGFEISFPEFCLKGVTLKNFSTSNLNTDFLAKKIIPSKDKNILPKVFHYYGPALEFVQMIKLSDLPSCYMSDIEFELGLTNSTKQNSVLLLEQISSLCSKVGALFVLPCTISNILIPPPNQLSSRKWKEYIAKKPKTISVPDVEVKGECSSYYLLLQGNGNRRCKATLIHSANQINGSFALNLIHGKMKTKTEEAKLSFPFDLLSLPHFSGEQIVQREKQLANVQVLALEECLKRRKLAKQPETVSVAELKSLLVLTRKHFLDYFDAVIPKMILRKMDKIKTFNILNDFSPVEPNSSSLMETNPLEWPERHVLQNLETFEKTKQKMRTGSLPHSSEQLLGHKEGPRDSITLLDAKELLKYFTSDGLPIGDLQPLPIQKGEKTFVLTPELSPGKLQVLPFEKASVCHYHGIEYCLDDRKALERDGGFSELQSRLIRYETQTTCTRESFPVPTVLSPLPSPVVSSDPGSVPDGEVLQNELRTEVSRLKRRSKDLNCLYPRKRLVKSESSESLLSQTTGNSNHYHHHVTSRKPQTERSLPVTCPLVPIPSCETPKLATKTSSGQKSMHESKTSRQIKESRSQKHTRILKEVVTETLKKHSITETHECFTACSQRLFEISKFYLKDLKTSRGLFEEMKKTANNNAVQVIDWVLEKTSKK
- binding [3]: binds
- binding [4]: binds

The next lines start with the values.

- binding [2]: binds
B2: MTBP fragment of amino acids M1 to Y513, in vitro translated (domain or fragment, UniProt Q96DY7 1-513)
chain: MDRYLLLVIWGEGKFPSAASREAEHGPEVSSGEGTENQPDFTAANVYHLLKRSISASINPEDSTFPACSVGGIPGSKKWFFAVQAIYGFYQFCSSDWQEIHFDTEKDKIEDVLQTNIEECLGAVECFEEEDSNSRESLSLADLYEEAAENLHQLSDKLPAPGRAMVDIILLLSDKDPPKLKDYLPTVGALKHLREWYSAKITIAGNHCEINCQKIAEYLSANVVSLEDLRNVIDSKELWRGKIQIWERKFGFEISFPEFCLKGVTLKNFSTSNLNTDFLAKKIIPSKDKNILPKVFHYYGPALEFVQMIKLSDLPSCYMSDIEFELGLTNSTKQNSVLLLEQISSLCSKVGALFVLPCTISNILIPPPNQLSSRKWKEYIAKKPKTISVPDVEVKGECSSYYLLLQGNGNRRCKATLIHSANQINGSFALNLIHGKMKTKTEEAKLSFPFDLLSLPHFSGEQIVQREKQLANVQVLALEECLKRRKLAKQPETVSVAELKSLLVLTRKHFLDY
modifications: 35S-methionine

- binding [2]: binds
B3: hMTBP, full length, in vitro translated (protein, UniProt Q96DY7 1-904)
chain: B4 chain
modifications: 35S-methionine

From article PMC6377148
